# Laboratory results taken from the supplement of paper PMC8728848.
# This is one part of the list.
# Legend:
# Assay in all cases: glycan array binding signal (z-score within array); higher = stronger binding
# Settings in all cases: glycan notation: IUPAC condensed, linker removed
# [1] = target: Gal(b1-3)GlcNAc(b1-2)Man(a1-3)[Gal(b1-3)GlcNAc(b1-2)Man(a1-6)]Man(b1-4)GlcNAc(b1-4)GlcNAc
# Summary of the method: (§1)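 Columns mapping to the same glycan were averaged after glycan names were converted to IUPAC-condensed notation. The data come from 3228 arrays in the Consortium for Functional Glycomics database, limited to those with an available protein sequence. Binding is reported as a within-array Z-score averaged across arrays of one protein sequence and across linkers.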
# [2] = target: Gal(b1-3)GlcNAc(b1-2)Man(a1-3)[Gal(b1-3)GlcNAc(b1-2)Man(a1-6)]Man(b1-4)GlcNAc(b1-4)[Fuc(a1-6)]GlcNAc
# Summary of the method: as §1
# [3] = target: Gal(b1-3)GlcNAc(b1-2)Man(a1-3)[GlcNAc(b1-4)][Gal(b1-3)GlcNAc(b1-2)Man(a1-6)]Man(b1-4)GlcNAc(b1-4)GlcNAc
# Summary of the method: as §1
# [4] = target: Gal(b1-3)GlcNAc(b1-2)[Gal(b1-3)GlcNAc(b1-6)]Man(a1-6)[Gal(b1-3)GlcNAc(b1-2)Man(a1-3)]Man(b1-4)GlcNAc(b1-4)GlcNAc
# Summary of the method: as §1
# [5] = target: Gal(b1-3)GlcNAc(b1-3)Gal(b1-3)GlcNAc
# Summary of the method: as §1
# [6] = target: Gal(b1-3)GlcNAc(b1-3)Gal(b1-4)Glc
# Summary of the method: as §1
# [7] = target: Gal(b1-3)GlcNAc(b1-3)Gal(b1-4)GlcNAc
# Summary of the method: as §1
# [8] = target: Gal(b1-3)GlcNAc(b1-3)Gal(b1-4)GlcNAc(b1-2)Man(a1-3)[Gal(b1-3)GlcNAc(b1-3)Gal(b1-4)GlcNAc(b1-2)Man(a1-6)]Man(b1-4)GlcNAc(b1-4)GlcNAc
# Summary of the method: as §1
# [9] = target: Gal(b1-3)GlcNAc(b1-3)Gal(b1-4)GlcNAc(b1-2)[Gal(b1-3)GlcNAc(b1-3)Gal(b1-4)GlcNAc(b1-6)]Man(a1-6)[Gal(b1-3)GlcNAc(b1-3)Gal(b1-4)GlcNAc(b1-2)Man(a1-3)]Man(b1-4)GlcNAc(b1-4)[Fuc(a1-6)]GlcNAc
# Summary of the method: as §1
# [10] = target: Gal(b1-3)GlcNAc(b1-3)Gal(b1-4)GlcNAc(b1-3)Gal(b1-4)GlcNAc(b1-2)[Gal(b1-3)GlcNAc(b1-3)Gal(b1-4)GlcNAc(b1-3)Gal(b1-4)GlcNAc(b1-6)]Man(a1-6)[Gal(b1-3)GlcNAc(b1-3)Gal(b1-4)GlcNAc(b1-3)Gal(b1-4)GlcNAc(b1-2)Man(a1-3)]Man(b1-4)GlcNAc(b1-4)[Fuc(a1-6)]GlcNAc
# Summary of the method: as §1
# [11] = target: Gal(b1-3)GlcNAc(b1-3)Gal(b1-4)GlcNAc(b1-6)[Gal(b1-3)GlcNAc(b1-3)]Gal(b1-4)Glc
# Summary of the method: as §1
# [12] = target: Gal(b1-3)GlcNAc(b1-3)Gal(b1-4)[Fuc(a1-3)]GlcNAc
# Summary of the method: as §1
# [13] = target: Gal(b1-3)GlcNAc(b1-3)Gal(b1-4)[Fuc(a1-3)]GlcNAc(b1-6)[Gal(b1-3)GlcNAc(b1-3)]Gal(b1-4)Glc
# Summary of the method: as §1
# [14] = target: Gal(b1-3)GlcNAc(b1-3)GalNAc
# Summary of the method: as §1
# [15] = target: Gal(b1-3)GlcNAc(b1-6)Gal(b1-4)GlcNAc
# Summary of the method: as §1
# [16] = target: Gal(b1-3)GlcNAc(b1-6)GalNAc
# Summary of the method: as §1
# [17] = target: Gal(b1-3)GlcNAc(b1-6)[Gal(b1-3)]GalNAc
# Summary of the method: as §1
# Gal(b1-3)GlcNAc6S = target: Gal(b1-3)GlcNAc6S
# Summary of the method: as §1
# [18] = target: Gal(b1-3)[Fuc(a1-4)]GlcNAc
# Summary of the method: as §1
# [19] = target: Gal(b1-3)[Fuc(a1-4)]GlcNAc(b1-2)Man
# Summary of the method: as §1
# [20] = target: Gal(b1-3)[Fuc(a1-4)]GlcNAc(b1-2)Man(a1-3)[Gal(b1-3)[Fuc(a1-4)]GlcNAc(b1-2)Man(a1-6)]Man(b1-4)GlcNAc(b1-4)[Fuc(a1-6)]GlcNAc
# Summary of the method: as §1
# [21] = target: Gal(b1-3)[Fuc(a1-4)]GlcNAc(b1-3)Gal(b1-3)[Fuc(a1-4)]GlcNAc
# Summary of the method: as §1
# [22] = target: Gal(b1-3)[Fuc(a1-4)]GlcNAc(b1-3)Gal(b1-4)[Fuc(a1-3)]GlcNAc
# Summary of the method: as §1
# [23] = target: Gal(b1-3)[Fuc(a1-4)]GlcNAc(b1-6)GalNAc
# Summary of the method: as §1
# [24] = target: Gal(b1-3)[GlcNAc(b1-6)]GalNAc
# Summary of the method: as §1
# [25] = target: Gal(b1-3)[Neu5Ac(a2-6)]GalNAc
# Summary of the method: as §1
# [26] = target: Gal(b1-3)[Neu5Ac(a2-6)]GlcNAc(b1-4)Gal(b1-4)Glc
# Summary of the method: as §1
# [27] = target: Gal(b1-3)[Neu5Ac(b2-6)]GalNAc
# Summary of the method: as §1
# Gal(b1-4)Gal = target: Gal(b1-4)Gal
# Summary of the method: as §1
# [28] = target: Gal(b1-4)GalNAc(a1-3)[Fuc(a1-2)]Gal(b1-4)GlcNAc
# Summary of the method: as §1
# [29] = target: Gal(b1-4)GalNAc(b1-3)[Fuc(a1-2)]Gal(b1-4)GlcNAc
# Summary of the method: as §1
# Gal(b1-4)Glc = target: Gal(b1-4)Glc
# Summary of the method: as §1
# Gal(b1-4)Glc6S = target: Gal(b1-4)Glc6S
# Summary of the method: as §1
# Gal(b1-4)GlcNAc = target: Gal(b1-4)GlcNAc
# Summary of the method: as §1
# [30] = target: Gal(b1-4)GlcNAc(a1-6)Gal(b1-4)GlcNAc
# Summary of the method: as §1
# Gal(b1-4)GlcNAc(b1-2)Man = target: Gal(b1-4)GlcNAc(b1-2)Man
# Summary of the method: as §1
# [31] = target: Gal(b1-4)GlcNAc(b1-2)Man(a1-3)Man(b1-4)GlcNAc(b1-4)GlcNAc
# Summary of the method: as §1
# [32] = target: Gal(b1-4)GlcNAc(b1-2)Man(a1-3)[Gal(b1-4)GlcNAc(b1-2)Man(a1-6)]Man(b1-4)GlcNAc(b1-4)GlcNAc
# Summary of the method: as §1
# [33] = target: Gal(b1-4)GlcNAc(b1-2)Man(a1-3)[Gal(b1-4)GlcNAc(b1-2)Man(a1-6)]Man(b1-4)GlcNAc(b1-4)[Fuc(a1-6)]GlcNAc
# Summary of the method: as §1
# [34] = target: Gal(b1-4)GlcNAc(b1-2)Man(a1-3)[Gal(b1-4)GlcNAc(b1-2)Man(a1-6)][Gal(b1-4)GlcNAc(b1-4)]Man(b1-4)GlcNAc(b1-4)[Fuc(a1-6)]GlcNAc
# Summary of the method: as §1
# [35] = target: Gal(b1-4)GlcNAc(b1-2)Man(a1-3)[Gal(b1-4)GlcNAc(b1-2)Man(a1-6)][GlcNAc(b1-4)]Man(b1-4)GlcNAc(b1-4)[Fuc(a1-6)]GlcNAc
# Summary of the method: as §1
# [36] = target: Gal(b1-4)GlcNAc(b1-2)Man(a1-3)[GlcNAc(b1-2)Man(a1-6)]Man(b1-4)GlcNAc(b1-4)GlcNAc
# Summary of the method: as §1
# [37] = target: Gal(b1-4)GlcNAc(b1-2)Man(a1-3)[GlcNAc(b1-4)][Gal(b1-4)GlcNAc(b1-2)Man(a1-6)]Man(b1-4)GlcNAc(b1-4)GlcNAc
# Summary of the method: as §1
# [38] = target: Gal(b1-4)GlcNAc(b1-2)Man(a1-3)[Man(a1-6)]Man(b1-4)GlcNAc(b1-4)GlcNAc
# Summary of the method: as §1
# [39] = target: Gal(b1-4)GlcNAc(b1-2)Man(a1-6)Man(b1-4)GlcNAc(b1-4)GlcNAc
# Summary of the method: as §1
binder,measurement,setting,value
Epa1to9 (Candida glabrata) (protein) MGSSHHHHHHSSGLVPRGSHMTSSNDISLASKDPTTFPLGCSPDITTPKKGLSMELYSYDFRKKGSYPCWDAAYLDPNYPRTGYKSHRLLAKVDGVTGNINFYYHATKGCTPQLGHLPASYNYPKPLTMTNFTMLLYGYFRPKVTGFHTFTISADDLLFVNFGAGNAFDCCRRDSSADHFGNYQAYAIWGSKTAKDELTVHLDAGVYYPIRLFYNNRDYHGALSFTFKTESNENTVSDFSEYFFSLDDTEEGCPGLISYD,glycan array binding signal (z-score),[1],0.302
same,glycan array binding signal (z-score),[2],0.352
same,glycan array binding signal (z-score),[3],0.07
same,glycan array binding signal (z-score),[4],0.267
same,glycan array binding signal (z-score),[5],-0.22
same,glycan array binding signal (z-score),[6],-0.286
same,glycan array binding signal (z-score),[7],-0.219
same,glycan array binding signal (z-score),[8],-0.208
same,glycan array binding signal (z-score),[9],-0.147
same,glycan array binding signal (z-score),[10],-0.065
same,glycan array binding signal (z-score),[11],0.152
same,glycan array binding signal (z-score),[12],-0.211
same,glycan array binding signal (z-score),[13],-0.041
same,glycan array binding signal (z-score),[14],0.385
same,glycan array binding signal (z-score),[15],1.76
same,glycan array binding signal (z-score),[16],-0.179
same,glycan array binding signal (z-score),[17],0.836
same,glycan array binding signal (z-score),Gal(b1-3)GlcNAc6S,0.738
same,glycan array binding signal (z-score),[18],-0.177
same,glycan array binding signal (z-score),[19],-0.159
same,glycan array binding signal (z-score),[20],-0.26
same,glycan array binding signal (z-score),[21],-0.34
same,glycan array binding signal (z-score),[22],-0.348
same,glycan array binding signal (z-score),[23],-0.277
same,glycan array binding signal (z-score),[24],1.32
same,glycan array binding signal (z-score),[25],4.47
same,glycan array binding signal (z-score),[26],-0.166
same,glycan array binding signal (z-score),[27],2.26
same,glycan array binding signal (z-score),Gal(b1-4)Gal,-0.293
same,glycan array binding signal (z-score),[28],-0.071
same,glycan array binding signal (z-score),[29],1.66
same,glycan array binding signal (z-score),Gal(b1-4)Glc,0.111
same,glycan array binding signal (z-score),Gal(b1-4)Glc6S,0.828
same,glycan array binding signal (z-score),Gal(b1-4)GlcNAc,0.318
same,glycan array binding signal (z-score),[30],1.12
same,glycan array binding signal (z-score),Gal(b1-4)GlcNAc(b1-2)Man,-0.273
same,glycan array binding signal (z-score),[31],-0.102
same,glycan array binding signal (z-score),[32],1.17
same,glycan array binding signal (z-score),[33],0.309
same,glycan array binding signal (z-score),[34],-0.161
same,glycan array binding signal (z-score),[35],-0.041
same,glycan array binding signal (z-score),[36],-0.131
same,glycan array binding signal (z-score),[37],-0.068
same,glycan array binding signal (z-score),[38],-0.161
same,glycan array binding signal (z-score),[39],-0.159
